Results: US8324172B2, “G protein coupled receptor agonists and antagonists and methods of activating and inhibiting G protein coupled receptors using the same” (Tufts Medical Center, Inc., priority 2000, dated 2012)
Entries after “also recorded” stand apart in the source; their conditions may differ. Part of at least one peptide drawing is inferred or uncertain, most often the ends. Where a SMILES comes first, the peptide text is derived from it. The star is where a group is joined. Palmitoyl = CCCCCCCCCCCCCCCC(=O)*

Columns and labels:
[1] = target: T1, PAR4 (Homo sapiens, UniProt Q96RI0); experiment: Inhibition of AYPGKF-induced human platelet aggregation; type: cell-based
T1 sequence (Q96RI0 18-385): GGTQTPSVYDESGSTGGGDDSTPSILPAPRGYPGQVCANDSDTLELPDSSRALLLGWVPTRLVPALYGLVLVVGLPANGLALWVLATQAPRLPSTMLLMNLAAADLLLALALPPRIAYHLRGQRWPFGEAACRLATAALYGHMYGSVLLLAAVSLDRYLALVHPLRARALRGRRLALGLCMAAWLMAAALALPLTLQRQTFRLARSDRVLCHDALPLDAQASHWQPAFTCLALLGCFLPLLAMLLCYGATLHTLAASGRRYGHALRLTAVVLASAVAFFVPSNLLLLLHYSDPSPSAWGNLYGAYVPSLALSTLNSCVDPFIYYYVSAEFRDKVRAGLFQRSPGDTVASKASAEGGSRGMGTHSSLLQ

[2] = Systemic platelet activation in mice (AYPGKF/epinephrine), platelet count
[3] = test system: thrombin receptors on human platelets; experiment: Inhibition of thrombin-induced human platelet aggregation; details: 3 μM pepducin
[4] = test system: MDA-MB-231 breast cancer cells; experiment: Chemoinvasion of MDA-MB-231 breast cancer cells (Transwell); type: cell-based, human; details: NIH3T3 conditioned medium
Description: Experiments were performed in order to determine if application of pepducins based on the i3 loops of PAR1, PAR2, or PAR4 would inhibit migration and invasion of breast cancer cells. It was determined that the highly invasive MDA-MB-231 breast cancer cell line expressed very high levels of functional PAR1, PAR2 and PAR4. […] Pepducins were added with NIH3T3 Conditioned medium (CM) to the bottom well of a Transwell apparatus.

[5] = test system: platelets; experiment: Platelet intracellular Ca2+, agonist activity of peptides
[6] = target: T1, PAR4; experiment: InsP formation in COS7 cells expressing PAR4; type: cell-based; design: expressed in transfected cells; host or cells: COS7, transient
[7] = test system: murine platelets (PAR4); experiment: Aggregation of washed murine platelets
[8] = test system: human platelets
[9] = test system: TXA2, ADP, collagen, or GPIb/IX/V receptors; experiment: Inhibition of human platelet aggregation induced by U46619, ADP, collagen or ristocetin; type: cell-based; details: 5 μM pepducin, ristocetin
Excerpt: 84, 1440 (1989)) and von Willebrand factor (GPIb/IX/V) (Savage et al., Cell 94, 657 (1998)) using platelets as the biologically-relevant system.

[10] = Tail bleeding time and rebleeding in mice; details: 3 μmoles/L i.v.
[11] = target: T2, PAR1 (Homo sapiens, UniProt P25116); experiment: Inhibition of SFLLRN-induced human platelet aggregation; type: cell-based; details: 5 μM pepducin; 3 μM SFLLRN
T2 construct: expressed in transfected cells
T2 sequence (P25116 22-425): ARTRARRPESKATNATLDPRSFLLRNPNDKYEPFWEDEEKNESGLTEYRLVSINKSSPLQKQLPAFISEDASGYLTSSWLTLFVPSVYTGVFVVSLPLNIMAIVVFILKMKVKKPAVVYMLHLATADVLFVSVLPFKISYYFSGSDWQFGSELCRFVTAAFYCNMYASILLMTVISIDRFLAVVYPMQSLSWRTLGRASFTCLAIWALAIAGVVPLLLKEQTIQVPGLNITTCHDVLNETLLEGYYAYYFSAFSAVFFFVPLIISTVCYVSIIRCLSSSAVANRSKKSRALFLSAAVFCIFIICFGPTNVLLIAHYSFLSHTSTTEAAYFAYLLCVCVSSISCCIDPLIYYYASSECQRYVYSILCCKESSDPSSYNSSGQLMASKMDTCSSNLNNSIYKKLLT

SMILES: CCCCCCCCCCCCCCCC(=O)N[C@@H](CO)C(=O)NCC(=O)N[C@@H](CCCNC(=N)N)C(=O)N[C@@H](CCCNC(=N)N)C(=O)N[C@@H](Cc1ccc(O)cc1)C(=O)NCC(=O)N[C@@H](Cc1c[nH]cn1)C(=O)N[C@@H](C)C(=O)N[C@@H](CC(C)C)C(=O)N[C@@H](CCCNC(=N)N)C(N)=O [Pepducin P4pal-10] (Palmitoyl-SGRRYGHALR-NH2)
- inhibition of PAR4-dependent platelet aggregation [1]: completely blocked aggregation
- protection against systemic thrombus formation ([2]; 0.3 μmoles/L pre-infusion): 36%
- protection against systemic platelet activation ([2]; 1 and 3 μmoles/L): 45-70%
- protection against systemic platelet activation ([2]; mice): protects against systemic platelet activation
- inhibition of aggregation ([3]; 3 nM thrombin, 1 min): inhibited human platelet aggregation to 3 nM thrombin though not as efficiently as P1pal-12
- inhibition of aggregation ([3]; 20 nM thrombin): 85%
- stimulation of chemoinvasion [4]: 40%
- agonist activity, platelet intracellular Ca2+ [5]: had no agonist activity
- activation of PAR4 (InsP) [6]: had no agonist activity
- inhibition of murine platelets at high thrombin ([7]; 20 nM thrombin): overcome at 20 nM thrombin
- block of aggregation of murine platelets ([7]; 3 μM pepducin, 1 nM thrombin): completely blocks aggregation
- inhibition of the rate of aggregation ([7]; 3 μM pepducin, 3 nM thrombin): 7 fold
- aggregation blocked ([7]; 3 μM pepducin, 100 μM AYPGKF): 75%
- agonist activity in platelet aggregation [8]: had no agonist activity
- block of aggregation by ligands of other platelet receptors [9]: did not appreciably block aggregation
- additional re-bleeding time [10]: 1 to 10 min
- additional re-bleeding time, mean [10]: 3.2 min
- effect on tail-bleeding time [10]: prolongs bleeding time; also recorded: markedly prolonged
- mean total bleeding time [10]: 249 s
- time until stream of blood reappeared [10]: 54 to 280 s
- mice that formed unstable thrombi at amputated tail tips (rebleeding) ([10]; 5 min before amputation, n=16): 50%
- inhibition of PAR1 activation by SFLLRN (aggregation) [11]: partially inhibit activation of PAR1
